One molecule from publication PMC5839781 (The Journal of Cell Biology, 2018) can be followed below.

This assay has as its target T1, Flag-ZW10 (mouse, UniProt O54692 1-779).
T1 sequence (looked up): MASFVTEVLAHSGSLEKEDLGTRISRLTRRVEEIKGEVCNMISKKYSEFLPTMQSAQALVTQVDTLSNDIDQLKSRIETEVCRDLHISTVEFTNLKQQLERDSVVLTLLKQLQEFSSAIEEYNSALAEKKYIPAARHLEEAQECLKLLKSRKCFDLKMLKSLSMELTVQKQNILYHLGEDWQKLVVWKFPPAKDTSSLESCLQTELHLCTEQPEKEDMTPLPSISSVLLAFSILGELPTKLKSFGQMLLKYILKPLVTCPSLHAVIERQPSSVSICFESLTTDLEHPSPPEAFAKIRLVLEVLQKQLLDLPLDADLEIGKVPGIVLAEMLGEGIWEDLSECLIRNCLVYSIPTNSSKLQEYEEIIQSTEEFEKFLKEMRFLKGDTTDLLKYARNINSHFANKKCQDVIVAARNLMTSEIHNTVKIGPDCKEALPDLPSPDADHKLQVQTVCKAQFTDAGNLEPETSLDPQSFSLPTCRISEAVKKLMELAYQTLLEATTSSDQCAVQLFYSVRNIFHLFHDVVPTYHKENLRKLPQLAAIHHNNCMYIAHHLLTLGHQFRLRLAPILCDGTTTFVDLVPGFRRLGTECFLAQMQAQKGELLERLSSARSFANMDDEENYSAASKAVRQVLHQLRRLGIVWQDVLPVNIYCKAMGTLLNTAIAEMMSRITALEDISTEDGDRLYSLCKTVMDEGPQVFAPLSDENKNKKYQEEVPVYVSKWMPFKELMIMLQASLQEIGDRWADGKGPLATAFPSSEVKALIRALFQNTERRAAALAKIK
The assay is described as follows: pull-down.

B1: GST-Rab18 (natural protein)
chain: not shown
Consider B1, for which the binding result was “binds”.
